Test results: PubChem BioAssay AID686970 (National Center for Advancing Translational Sciences (NCATS), 2013)
Screen size: about 360,000 compounds; about 6,000 (1.7%) were called active. The shares of active, inactive and inconclusive entries below differ from those in the screen. Calls follow the shape of the dose curve; as a rule, active = well fitted cell-killing curve with a large enough effect; inconclusive = small, poorly fitted or top-dose-only effect, or effect the other way; inactive = flat fitted curve, though single readings scatter. No potency is given beside an inconclusive call; the fits are too rough.

test: qHTS for induction of synthetic lethality in tumor cells producing 2HG: qHTS for the HT-1080-NT fibrosarcoma cell line; conditions: HT-1080-NT fibrosarcoma viability, CellTiter-Glo ATP luminescence, 48 h; activity, negative = less viability: at 46.1 µM (top of the series) unless noted;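 also: NT is the 2HG producing partner of a matched IDH1 knockdown line; nearly all actives have a fitted effect of over 55% in size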;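 as to activity, negative = less viability: 0% = DMSO-treated cells and -100% = media-only wells without cells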
Procedure, shortened: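 Fibrosarcoma NT cells, 750 per well in 5% FBS RPMI, were exposed to compound for 48 hours. Viability: CellTiter-Glo luminescence.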
Potency is read from the fitted curve at half-maximal effect; tags tell the direction and shape of the fitted curve.

| SMILES | Potency | activity, negative = less viability |
| --- | --- | --- |
| CC(C)(C)NC(=O)C1c2ccccc2OCC(=O)N1Cc1ccccc1 (configuration not stated) | inactive |  |
| Cc1ccc(-c2cc(-c3ccccc3)nc(N/N=C/c3cccnc3)n2)cc1 | inconclusive [cytotoxic, single point] |  |
| Cc1cc(C(=O)OC(C)C(=O)Nc2cccc(Cl)c2)on1 (configuration not stated) | inactive |  |
| CC1CC(C)CN(S(=O)(=O)c2ccc(C(=O)N(C)Cc3ccccc3)cc2)C1 (configuration not stated) | inactive |  |
| Cc1ccc(-c2csc(NC(=O)C3=COCCO3)n2)cc1C | inconclusive [cytotoxic, partial curve, poor fit] |  |
| CC1(C(=O)NCc2ccccc2Br)CCN1Cc1csc2ccccc12 (configuration not stated) | inconclusive [cytotoxic, single point] |  |
| CCc1ccc(NC(=O)CCn2c(=O)c3cccn3c3ccccc32)cc1 | inconclusive [cytotoxic, single point] |  |
| CC(C)(C)c1ccc(Oc2ccc(NC(=O)C3CC=CCC3C(=O)O)cc2)cc1 (configuration not stated) | inconclusive [cytotoxic, single point] |  |
| Cc1cc(NC(=O)CCN2CCN(Cc3ccccc3)CC2)ccc1Br | active: 20.6 µM |  |
| O=C(CS(=O)(=O)c1ccc(C(F)(F)F)cn1)NNC(=O)c1ccccc1 | inconclusive [rising, single point] |  |
| NC(=O)N/N=C/c1sc(N2CCCCC2)nc1-c1cccs1 | inconclusive [cytotoxic, single point] |  |
| CCc1nc2ccc(C(=O)N(C)CCCN(C)C)cn2c1N(C)Cc1cc2ccccc2s1 | active: 18.4 µM |  |
| CN(CC(=O)Nc1ccc(N2CCOCC2)cc1)C(=O)CCc1ccccc1Cl | inactive |  |
| COC(=O)NC(=S)N1CCOCC1 | inconclusive [rising, single point] |  |
| CCSc1nnc(NC(=O)CSc2nnc(CNC(=O)c3ccc(OC)cc3)o2)s1 | inconclusive [cytotoxic, single point] |  |
| c1ccc(COc2ccc(OCCCNC3CCCC3)cc2)cc1 | active: 23.1 µM |  |
| CCN(CC)CCNC(=O)C(=O)Nc1ccc2c(c1)N(S(=O)(=O)c1cccs1)CCC2 | inconclusive [cytotoxic, partial curve] |  |
| CCc1ccc(/C=C2\SC(=S)N(CCC(=O)NCCCN3CCOCC3)C2=O)cc1 | inconclusive [cytotoxic, single point] |  |
| CC(=O)c1c(C)[nH]c(C(=O)Nc2cc(C)cc(C)c2)c1C |  | inconclusive: 20.4% |
| CN(CC(=O)NC(=O)NCc1ccccc1)CC(=O)Nc1ccc(Cl)c(C(F)(F)F)c1 | active: 18.4 µM |  |
| CNc1cncc(-c2cccc(OC)c2F)n1 |  | inconclusive: 36.8% |
| Cc1c(C)n(Cc2ccc(Cl)cc2)c2ccc(C(=O)NCCN3CCOCC3)cc12 | inconclusive [cytotoxic, single point] |  |
| Cc1cc(C)c(S(=O)(=O)Nc2ccc3c4c(cccc24)CC3)c(C)c1 | inconclusive [cytotoxic, full curve] |  |
| CC1CC(C)CN(S(=O)(=O)c2ccc(NC(=O)c3ccc(=O)[nH]c3)cc2)C1 (configuration not stated) | active: 5.8 µM |  |

| SMILES | Potency | activity, negative = less viability |
| --- | --- | --- |
| Cc1ccc(C(C)C)c(OCC(=O)NNC(=O)Nc2ccccc2)c1 | inconclusive [cytotoxic, single point] |  |
| CN(C)Cc1ccccc1C(O)(c1ccccc1)c1ccccc1 | inconclusive [cytotoxic, single point] |  |
| CCn1cc(CN2CCCC(C(=O)Nc3cccc(-c4cc5ccccc5[nH]4)c3)C2)cn1 (configuration not stated) | active: 16.4 µM |  |
| COc1ccccc1/C=C/CN1CCC(CO)(Cc2ccccc2)CC1 | inconclusive [cytotoxic, single point] |  |
| Cc1ccc(C)c(NC(=S)NCc2ccc3[nH]c4c(c3c2)CCCC4)c1 | inconclusive [cytotoxic, partial curve, poor fit] |  |
| O=S(=O)(NCc1ccccc1)[C@@H]1CC2C=CC1C2 (some centres not stated) | inactive |  |
| Clc1ccc(OCc2noc(-c3ccsc3)n2)c(Cl)c1 | inconclusive [rising, partial curve] |  |
| CC1(C(=O)NCc2cccnc2)CCN1C(=O)c1cccc(F)c1 (configuration not stated) | inactive |  |
| CCOC(=O)N1CCN(CC(=O)Nc2ccc([N+](=O)[O-])cc2C(=O)Nc2ccccc2F)CC1 | inconclusive [cytotoxic, partial curve] |  |
| COc1ccc(CNc2ncnc3sccc23)cc1 | inconclusive [cytotoxic, full curve, poor fit] |  |
| N#Cc1c(-c2ccc(Cl)cc2)c(-c2ccc(Cl)cc2)nn(CCOC(=O)CCC(=O)O)c1=O | active: 5.17 µM |  |
| CC(C)(O)C(=O)NNC(=S)NCc1ccco1 | inactive |  |
| O=C(O)c1cccc(N/N=C(\N=Nc2ccccc2)c2ccccc2)c1 | inconclusive [cytotoxic, full curve] |  |
| CCCN(CCC)CCCNC(=O)c1cc2c(-c3ccc(OC)c(OC)c3)nn(C)c2s1 | inconclusive [cytotoxic, partial curve] |  |
| CCc1nc2c(OCc3cc(Cl)cc(Cl)c3)cccn2c1N(C)C(=O)c1cccc(OC)c1 | inconclusive [cytotoxic, single point] |  |
| COC(=O)c1cc(=O)n(-c2ccccc2)c(=Nc2ccccc2)s1 | inconclusive [cytotoxic, single point] |  |
| CCc1cccc(C)c1NC(=O)CCOc1ccccc1 | inactive |  |
| C/C(=N\NC(=O)c1cc(-c2cccc([N+](=O)[O-])c2)n[nH]1)c1ccccc1O | inconclusive [cytotoxic, single point] |  |
| Cc1ccc([N+](=O)[O-])c(OCCN2CCC(Cc3ccccc3)CC2)c1 | active: 20.6 µM |  |
| COC(=O)[C@@H]1Cc2c([nH]c3ccccc23)C(C)N1C(=O)c1ccccc1 (some centres not stated) | inconclusive [cytotoxic, single point] |  |
| Cc1sc(NC(=O)CSc2nc(O)cc(=O)[nH]2)nc1-c1ccccc1 |  | inconclusive: 30.1% |
| Cc1cccc(C)c1N1C(=O)CC(Sc2ccccc2N)C1=O (configuration not stated) | inactive |  |
| Cn1c(NCc2ccc3occc3c2)nc2cc(-c3cccc(C(F)(F)F)c3)sc2c1=O | inactive |  |
| CN1CCN(c2ccc(Cl)cc2NC(=O)C2COc3ccccc3O2)CC1 (configuration not stated) | active: 14.6 µM |  |

| SMILES | Potency | activity, negative = less viability |
| --- | --- | --- |
| O=C1NC[C@H](Cc2ccccc2)N(C[C@@H]2CCCN2C[C@H](Cc2ccccc2)N2C[C@H](Cc3ccccc3)N(CCc3ccccc3)C(=O)C2=O)C1=O | inconclusive [cytotoxic, single point] |  |
| CCCc1ccc2oc(C(=O)N(C)Cc3nccs3)c(C)c2c1 | inconclusive [cytotoxic, single point] |  |
| O=C1NC2(CCCCC2)NN1c1ccccc1 | inconclusive [cytotoxic, full curve] |  |
| Cc1ccc(-c2nn(-c3ccccc3)cc2/C=C2\SC(=S)N(CCCCCC(=O)O)C2=O)o1 | inconclusive [cytotoxic, single point] |  |
| COc1ccc(C2C(C#N)=C(SC)NC3=C2C(=O)CC(C)(C)C3)cc1 (configuration not stated) | inactive |  |
| C#CCN1C=CC(=O)[C@@H](OC(=O)NCCC)[C@H]1c1ccccc1Br | inactive |  |
| COc1ccc(C)cc1NC(=O)C(NCC1CCCO1)c1ccccc1 (configuration not stated) | inactive |  |
| CCCCn1c(-c2ccc(Br)cc2F)nc2c1c(=O)[nH]c(=O)n2CC(C)C | inconclusive [cytotoxic, single point] |  |
| COc1ccc2[nH]c(=O)c(CN(Cc3ccco3)C(=O)c3ccccc3)cc2c1 | inconclusive [cytotoxic, single point] |  |
| O=C(COc1c(F)c(F)c(C(F)(F)F)c(F)c1F)Nc1ccc(N2CCOCC2)c(Cl)c1 | inactive |  |
| c1ccc(CCNc2ncnc3ccccc23)cc1 | inconclusive [cytotoxic, partial curve] |  |
| CCCCn1c(SCC(=O)Nc2cc(NC(=O)c3ccco3)ccc2C)nc2ccccc2c1=O | inconclusive [cytotoxic, single point] |  |
| CCCCn1c(SCC(=O)Nc2nnc(CC)s2)nc2ccccc2c1=O | inactive |  |
| Oc1ccc(-c2csc(NCc3ccco3)n2)cc1 | inactive |  |
| Cc1nn(CCc2n[nH]c(=S)n2C2CCCCC2)c(C)c1Br | inconclusive [cytotoxic, single point] |  |
| N#Cc1c(Cl)nsc1NC(=O)c1ccccc1 | active: 8.2 µM |  |
| CN(C)CCNc1ccc(CO)c2sc3ccc(O)cc3c(=O)c12 | inconclusive [cytotoxic, single point] |  |
| Cc1ccc2nc(-c3ccc(C#N)cc3)c(Cc3cccc(Cl)c3)n2c1 | inconclusive [cytotoxic, single point] |  |
| CN(C)CCCN(C(=O)c1cc2cc([N+](=O)[O-])ccc2s1)c1nc2cc3c(cc2s1)OCCO3 | inconclusive [cytotoxic, single point] |  |
| CC(C)c1ccc(NC(=O)C(=O)C2C(=O)Nc3ccccc32)cc1 (configuration not stated) | inactive |  |
| Cc1ccc(-c2nc(N=Nc3ccc(O)cc3)n[nH]2)cc1 | inactive |  |
| COC(=O)c1ccc(NC(=O)c2ccc(CN3CCOCC3)cc2)cc1 | inconclusive [cytotoxic, single point] |  |
| O=C(Nc1cccc(Cl)c1Cl)C1CC(=O)N(c2ccc(Br)cc2)C1 (configuration not stated) | inconclusive [cytotoxic, single point] |  |
| CCN(CC)CCCCNc1ncc2cc(-c3cc(OC)cc(OC)c3)c(NC(=O)NC(C)(C)C)nc2n1 | active: 16.4 µM |  |
